Measured values as given in PubChem BioAssay AID1508624 (National Center for Advancing Translational Sciences (NCATS), 2021).
The campaign covered roughly 48,000 compounds. About 120 (0.25%) were called active. Another 4% or so got no clear call; they are omitted. The call rests on the fitted dose curve; in most records, active means well fitted activation curve with a large enough effect; inconclusive means small, poorly fitted or top-dose-only effect, or another doubt; inactive means no such curve, though single readings can be large or run the other way. The list shows a part of the results.

Experiment: Primary qHTS for Identification of Small Molecule Activators of Huntingtin-Antisense Promoter Activity; further: nearly all actives have a fitted effect of over 55% in size
Conditions: HEK293 HTT-AS promoter firefly luciferase reporter (activity 0% = vehicle and -100% = no light), 24 h; series mostly up to 57.5 µM; activity change, positive = activation: at the top concentration
Summary of the method: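 Luminescence was read after Dual-Glo reagent and a 10 min room-temperature incubation. Values were normalized to vehicle (0% activity) and zero RLU (-100% activity). Reporter HEK293 cells had been exposed to compounds (up to 57.5 uM final) for 24 h.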

Activity change, positive = activation, inactive:
CC(=O)Nc1ccc(NC(=O)C2CCCN2S(=O)(=O)c2ccc3c(c2)CCCC(=O)N3)cc1 (stereo not given) 5.19%, COc1ccc(OC)c(CCNC(=O)c2cc3c(=O)oc4ccc(C)cc4c3s2)c1 -0.427%, O=C(Nc1ccc2nc(SCc3ccccc3)sc2c1)c1ccccc1F -14.4%, O=C(Nc1ccc(F)c(Cl)c1)c1cc(S(=O)(=O)N2CCc3ccccc3C2)ccc1F -21.1%, Cc1ccc(OCC(=O)Nc2ccc3c(c2)nc(CCNC(=O)c2ccco2)n3C)cc1 -13.5%, COc1ccc(N2CCN(C(=O)CN3C(=O)CSc4c3c(C)nn4-c3ccccc3)CC2)cc1 -4.6%, O=C(Nc1ccc2oc(-c3cccnc3)nc2c1)c1ccc(-c2ccc(OC(F)(F)F)cc2)o1 -10.8%, CCOc1cccc(CC(=O)N2CCc3c([nH]c4ccccc34)C2c2ccccc2)c1OCC (stereo not given) -30.7%, CCC1CCCCN1CCCNC(=O)c1ccc2c(c1)N(Cc1ccccc1)C(=O)c1ccccc1S2(=O)=O (stereo not given) -11.2%, CCn1nc(C)c2c(-c3ccccc3)cc(=O)n(C(C)C(=O)NCc3cccc(OC)c3)c21 (stereo not given) -14%, CCN(CC)c1ccc(CN(C(=O)Cc2coc3ccc(C)cc23)C2CCS(=O)(=O)C2)cc1 (stereo not given) -28.4%, CCc1ccc(OCCCn2c(-c3ccc(Cl)cc3)nc3ccccc3c2=O)cc1 -15%, Cc1ccc(-c2nc3scc(CCNS(=O)(=O)c4ccc(F)c(C)c4)n3n2)cc1 -26.4%, Cc1ccc(Cl)cc1NC(=O)CSc1ccc(C(=O)O)cn1 15.8%, CCN(CC)c1ccc(NC(=O)c2cc(C)nc3c2c(C)nn3-c2cccc(F)c2)c(C)c1 -13.1%, c1ccc(-c2nnc(CN3CCN(c4ccccn4)CC3)o2)cc1 0.258%, Cc1ccc(OCC(=O)OCc2cc(=O)n3nc(C4CCCCC4)sc3n2)cc1C -6.6%, O=C1CC(c2ccccc2)Sc2nc(-c3ccc(F)cc3)nn21 (stereo not given) 8%, O=C(c1[nH]c2ccccc2c1Sc1ccc(Cl)cc1)N1CCCCC1 -10%, CCC1CN(C(=O)N2CCC(C(=O)NCCc3ccccc3C)CC2)c2ccccc2O1 (stereo not given) -38.1%, CCOc1ccccc1CNCc1c(C(=O)O)c(C)n(Cc2ccc(Cl)cc2)c1C -11%, CCN(Cc1ccccc1)Cc1c(O)ccc2c(=O)c(-c3ccccc3)c(C(F)(F)F)oc12 -27.9%, CCN(CC)CCNC(=O)c1ccc2c(c1)NC(=O)C(CS(=O)(=O)Cc1cccc(Br)c1)N2 (stereo not given) -5.88%, COc1ccc(-c2nc3cc(C(C)C)ccc3o2)cc1NC(=O)COc1ccc(C)cc1C 7.37%, O=C(Cn1c(=O)c2ccccc2n(CC(=O)Nc2ccc(F)cc2F)c1=O)NCCc1ccccc1 -15.9%, Cc1ccc(C)c(Nc2ncnc3onc(C)c23)c1 -17.9%, COc1ccc(NC(=O)CCSc2nc(-c3ccco3)cc(C(F)(F)F)n2)cc1 -7.47%, COc1ccc(NC(=O)CSc2ncccc2C(=O)O)cc1OC 1.23%, CCN(C(=O)c1cc2c(=O)oc3ccc(C)cc3c2s1)c1cc(OC)ccc1OC -23.4%, COc1ccccc1N1CCN(S(=O)(=O)c2c(C)sc3ncn(CC(=O)Nc4ccc(C(F)(F)F)cc4)c(=O)c23)CC1 16.3%, CC(=O)c1ccc(NC(=O)C2CCCN(S(=O)(=O)c3ccc4c(c3)CCCN4C(C)=O)C2)cc1 (stereo not given) -21.3%, Cc1cc(C)c(NC(=O)CCCN2C(=O)COc3ccc(C)cc32)c(C)c1 -10.1%, Cc1ccc(OCC(=O)Nc2ccccc2C(=O)OCc2cc(=O)n3ccsc3n2)cc1C 0%, COc1ccc(CCNC(=O)CN(c2cc(C(F)(F)F)ccc2Cl)S(C)(=O)=O)cc1 -15.8%, O=C(Cn1ccc2cc(S(=O)(=O)N3CCCCC3)ccc21)NCCc1ccc(Cl)cc1 -41.9%, COC(=O)c1sc(NC(=O)c2cc3nc(-c4ccc(Br)cc4)cc(C(F)(F)F)n3n2)c(C(=O)OC)c1C -1.78%, CCc1ccc(NC(=O)c2cc3nc(-c4ccc(C)cc4)cc(C(F)(F)F)n3n2)cc1 -6.16%, CCOC(=O)c1c(NC(=O)Cc2coc3cc(C)ccc23)sc2c1CCCC2 -2.42%, CCC1CN(C(=O)N2CCC(C(=O)Nc3cc(C)ccc3C)CC2)c2ccccc2O1 (stereo not given) -17.1%, CCCCOc1ccc(C(=O)CCN2CCCCC2)cc1 -2.59%, COc1cc(C2c3c(oc4ccccc4c3=O)C(=O)N2c2nncs2)cc(OC)c1OC (stereo not given) -17.8%, Cc1cccc(-c2cc(NC(=O)C(C)(C)C)n(-c3ccccc3)n2)c1 19.6%, O=C(COc1ccc(F)cc1)Nc1ccccc1C(=O)OCc1cc(=O)n2nc(C3CC3)sc2n1 -23.9%, Cc1nc2nc(SCc3ccc(F)cc3Cl)nn2c(C)c1Cc1ccccc1 -0.411%, CCOc1ccc(-c2cn3c(n2)sc2cc(C(=O)NCCCc4ccccc4)ccc23)cc1 -7.36%, O=C(CS(=O)(=O)c1cccc2nsnc12)NCc1ccc(Cl)cc1 -3.74%, COc1ccc(-c2c(C)nn3c4c(cnc23)C(=O)CC(c2ccccc2)C4)cc1 (stereo not given) -0.866%, CC(NC(=O)c1ccc(Nc2nc3ccccc3n3nnnc23)cc1)c1ccccc1 (stereo not given) 12.4%, Cc1nc2nc(-c3ccc(Cl)cc3Cl)nn2c(C)c1CCC(=O)Nc1ccc(F)cc1 -80.3%, COc1cccc(N2CC(NC(=O)c3ccc4c(c3)OCO4)CC2=O)c1 (stereo not given) -11.7%, CCCCN(C)CCCNC(=O)CN1C(=O)COc2ccc(S(=O)(=O)N3CCOCC3)cc21 -5.76%, CC1CCN(S(=O)(=O)c2cc3c4c(c2)CC(=O)N4CCC3)CC1 -18.6%, Fc1ccc(-c2cc(-c3ccccc3)c3c(n2)-c2cc(F)ccc2OC3)cc1 -6.35%, Cc1ccc(-c2c(C)n3c4c(=O)n(C)c(=O)n(C)c4nc3n2-c2cccc(O)c2)cc1 -16.2%, COc1ccc(S(=O)(=O)NCC(c2ccco2)N2CCOCC2)cc1 (stereo not given) -16.4%, Cc1cc(C)cc(NC(=O)CSc2oc(-c3cccs3)nc2S(=O)(=O)c2ccccc2)c1 -28%, CCOC(=O)c1cc(S(=O)(=O)N2CCN(c3cc(C)ccc3C)CC2)[nH]n1 -10.8%, COc1ccccc1Nc1nn2c(=O)c3ccc(C(=O)N4CCCCC4)cc3nc2s1 -24.3%, COc1ccc(CCC(=O)Nc2nc3ccc(Cl)cc3s2)cc1OC 14.9%, Cc1cccc(C)c1N1CC(c2nc3ccccc3n2CC(=O)OC(C)C)CC1=O (stereo not given) -25.2%
